{
  "source": "PubChem BioAssay (NCI)",
  "note": "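Grown in 96-well plates, cells were treated for 48 hours with each compound at five concentrations. Insufficient inhibition: endpoint recorded as highest concentration tested. Here, GI50 denotes the concentration required for 50% inhibition of growth. Definition used: TGI = concentration required for complete inhibition of growth.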",
  "data": [
    {"test_system": "NCI-H322M lung", "assay": "NCI-60 cell line screen, 48 h", "units": {"GI50": "µM", "TGI": "µM"}, "values": [
      {"smiles": "O=C(NNC(=S)NC(=O)c1ccccc1)c1ccc(OCc2nc3ccc(Cl)cc3[nH]2)cc1", "GI50": 1.82, "TGI": 4.98},
      {"smiles": "COc1ccc(N2N=C(c3ccc4c(c3)OCO4)CC2c2cccc(NC(=O)CCNS(=O)(=O)c3ccc(Cl)cc3)c2)cc1", "note": "(stereo not drawn)", "GI50": 26.3, "TGI": "> 100"},
      {"smiles": "Cn1cc(-c2cc(N)n3nc(-c4c[nH]c5ccccc45)cc3n2)c2cccnc21", "GI50": 12.7, "TGI": 36.3},
      {"smiles": "O=C(N/N=C/c1ccc(Cl)o1)c1[nH]c2ccc(Br)cc2c1-c1ccccc1", "GI50": 0.631, "TGI": 98.5}
    ]}
  ]
}
